Out of some 360,000 compounds screened, about 16,000 (4.4%) were called active. Inconclusive results, whose numbers are uncertain, are shown with a selection of clear calls. Calls follow the shape of the dose curve; as a rule, active = well fitted inhibition curve with a large enough effect; inconclusive = small, poorly fitted or top-dose-only effect; inactive = no such curve, though single readings can be large or run the other way. Potencies beside an inconclusive call are fits to weak or partial responses and may not hold up.
What follows are compounds tested against Bromodomain adjacent to zinc finger domain protein 2B (Homo sapiens) (UniProt Q9UIF8) (assay: qHTS Assay for Inhibitors of BAZ2B). Settings: AlphaScreen BAZ2B-H3K14Ac peptide displacement; series mostly up to 114 µM.
UniProt Q9UIF8, sequence (Q9UIF8 whole entry, looked up, the tested form may be a part): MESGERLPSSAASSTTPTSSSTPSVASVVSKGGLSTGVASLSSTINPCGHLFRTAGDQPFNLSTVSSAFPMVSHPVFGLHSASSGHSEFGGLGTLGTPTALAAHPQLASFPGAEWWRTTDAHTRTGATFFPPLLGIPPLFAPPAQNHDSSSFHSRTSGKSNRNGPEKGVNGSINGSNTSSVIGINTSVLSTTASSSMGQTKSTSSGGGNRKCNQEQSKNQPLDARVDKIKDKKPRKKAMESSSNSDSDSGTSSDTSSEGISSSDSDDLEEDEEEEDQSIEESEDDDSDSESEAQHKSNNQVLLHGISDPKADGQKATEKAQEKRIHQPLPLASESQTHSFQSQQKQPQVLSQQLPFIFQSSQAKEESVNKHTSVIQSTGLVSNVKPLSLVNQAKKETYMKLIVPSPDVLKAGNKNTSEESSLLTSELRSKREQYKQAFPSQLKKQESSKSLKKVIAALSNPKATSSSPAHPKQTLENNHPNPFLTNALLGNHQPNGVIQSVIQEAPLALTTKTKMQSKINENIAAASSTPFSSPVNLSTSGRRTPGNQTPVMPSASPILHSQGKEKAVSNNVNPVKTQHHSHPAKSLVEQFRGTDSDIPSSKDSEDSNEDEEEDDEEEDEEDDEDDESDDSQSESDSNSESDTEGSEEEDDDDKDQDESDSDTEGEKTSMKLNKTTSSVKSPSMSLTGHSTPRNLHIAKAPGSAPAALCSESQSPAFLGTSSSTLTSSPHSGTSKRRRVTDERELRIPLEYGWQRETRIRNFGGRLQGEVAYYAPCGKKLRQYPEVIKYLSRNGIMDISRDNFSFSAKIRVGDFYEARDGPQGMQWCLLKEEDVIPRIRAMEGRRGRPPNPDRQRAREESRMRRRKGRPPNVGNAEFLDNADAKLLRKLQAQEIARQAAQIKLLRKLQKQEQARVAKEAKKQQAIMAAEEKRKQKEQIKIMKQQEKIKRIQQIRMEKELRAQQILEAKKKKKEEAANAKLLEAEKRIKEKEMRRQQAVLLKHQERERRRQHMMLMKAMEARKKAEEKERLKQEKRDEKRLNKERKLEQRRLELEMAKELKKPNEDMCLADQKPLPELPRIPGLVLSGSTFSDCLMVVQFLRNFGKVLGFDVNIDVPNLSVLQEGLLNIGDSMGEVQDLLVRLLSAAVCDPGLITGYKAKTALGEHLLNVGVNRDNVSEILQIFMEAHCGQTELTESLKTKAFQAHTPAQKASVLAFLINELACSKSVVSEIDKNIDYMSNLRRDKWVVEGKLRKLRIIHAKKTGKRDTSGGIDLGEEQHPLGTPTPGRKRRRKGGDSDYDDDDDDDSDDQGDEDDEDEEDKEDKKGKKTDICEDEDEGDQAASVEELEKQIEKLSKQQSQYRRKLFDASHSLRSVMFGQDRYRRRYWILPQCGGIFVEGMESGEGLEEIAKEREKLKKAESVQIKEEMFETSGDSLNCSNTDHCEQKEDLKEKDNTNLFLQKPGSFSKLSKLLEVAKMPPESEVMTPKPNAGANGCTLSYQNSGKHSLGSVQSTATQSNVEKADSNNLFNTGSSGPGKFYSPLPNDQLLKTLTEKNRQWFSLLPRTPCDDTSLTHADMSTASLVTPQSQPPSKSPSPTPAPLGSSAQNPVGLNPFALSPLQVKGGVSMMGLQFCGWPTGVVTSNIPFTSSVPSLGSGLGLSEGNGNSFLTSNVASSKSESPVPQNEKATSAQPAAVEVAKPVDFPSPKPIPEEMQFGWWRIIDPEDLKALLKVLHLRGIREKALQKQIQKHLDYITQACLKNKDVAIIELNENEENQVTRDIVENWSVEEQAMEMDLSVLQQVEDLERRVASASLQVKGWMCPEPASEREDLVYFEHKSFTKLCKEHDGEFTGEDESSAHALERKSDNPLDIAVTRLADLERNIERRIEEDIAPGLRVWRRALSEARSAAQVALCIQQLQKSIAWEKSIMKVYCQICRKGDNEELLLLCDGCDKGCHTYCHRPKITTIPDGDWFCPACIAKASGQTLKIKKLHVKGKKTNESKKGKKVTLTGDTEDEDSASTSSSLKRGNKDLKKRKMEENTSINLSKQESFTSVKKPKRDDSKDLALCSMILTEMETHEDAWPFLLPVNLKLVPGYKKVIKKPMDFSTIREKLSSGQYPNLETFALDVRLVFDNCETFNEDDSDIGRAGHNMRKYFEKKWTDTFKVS
Summary of the method: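 Compounds, titrated to a top concentration of 110 uM, were incubated 30 min at room temperature with preformed BAZ2B/acetyl-K14 H3 peptide complex (50 nM each). Proximity signal was measured by AlphaScreen after 20 min with beads.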
In the case of `COc1ccccc1OCC(=O)c1[nH]c(C)c(C(C)=O)c1C`, the Potency was inconclusive: 89.1 µM [inhibitor, single point]. For `Oc1sc(C=Nc2ccccc2)c2ccccc12`, the Potency was “inactive”. In the case of `O=C(O)c1ccc(S(=O)(=O)N2CCCc3ccccc32)cc1`, the Potency was “inactive”. For `CCC1CN(C(=O)N2CCC(C(=O)NCc3cccc(F)c3)CC2)c2cc(C)ccc2O1` (stereo unspecified), the Potency was inconclusive: 17.8 µM [inhibitor, full curve]. `CNC(=S)N(Cc1cccs1)Cc1cc2ccc(OC)cc2[nH]c1=O` was tested, and the Potency was “inactive”. For `CCN(CC)CCn1c(NCc2ccc(C)o2)nc2ccccc21`, the Potency was inconclusive: 63.1 µM [inhibitor, single point]. With `COc1ccc(OC(=O)Nc2ccccc2)cc1` the Potency was “inactive”. In the case of `O=C(NC(=S)Nc1ccccc1[N+](=O)[O-])c1ccccc1Cl`, the Potency was inconclusive: 70.8 µM [inhibitor, partial curve]. For `COc1ccc(C(=O)N(Cc2ccccc2)c2ccc(C)cc2)cc1S(=O)(=O)N1CCOCC1`, the Potency was inconclusive: 70.8 µM [inhibitor, single point]. With `COc1ccc(N(C)C(=O)CCS(=O)(=O)c2cccc3nonc23)cc1` the Potency was inconclusive: 89.1 µM [inhibitor, single point]. With `CCCNC(=O)c1ccc2c(=O)n(Cc3ccco3)c(=S)[nH]c2c1` the Potency was inconclusive: 89.1 µM [inhibitor, single point]. For `O=C(NCc1cccnc1)c1cc(C(=O)C2CC2)c[nH]1`, the Potency was inconclusive: 100 µM [inhibitor, single point]. In the case of `CCOc1ccc(NC(=O)CSc2nnc(Cc3cccn3C)n2-c2ccc(OC)cc2)cc1`, the Potency was inconclusive: 79.4 µM [inhibitor, single point]. In the case of `COc1cc(OC)c2ccc(=O)oc2c1C(CCN1CCN(c2ccccc2)CC1)c1ccc2c(c1)OCO2` (stereo unspecified), the Potency was active: 25.1 µM. With `COc1cc2ccccc2cc1C(=O)N1CCN(c2ccccc2O)CC1` the Potency was “inactive”. In the case of `CCOc1cccc(OCCOCCNC(C)(C)C)c1`, the Potency was active: 44.7 µM. In the case of `COc1ccc(CCNC(=O)C2CCCN(Cc3nc(-c4cccc(Cl)c4)oc3C)C2)cc1OC` (stereo unspecified), the Potency was inconclusive: 89.1 µM [inhibitor, single point]. For `O=C(CCn1ccc2ccccc21)Nc1ccc(N2CCOCC2)cc1`, the Potency was “inactive”. In the case of `CCn1c(C)c(C)c2cc(C(=O)NCCN3CCCCCC3)ccc21`, the Potency was active: 22.4 µM. `O=C1c2ccccc2C(=O)c2c1cccc2N1CCN(CCO)CC1` was tested, and the Potency was inconclusive: 79.4 µM [inhibitor, single point]. For `CCCN(CC(=O)Nc1ccccc1OC)C(=O)c1ccc2[nH]c3c(c2c1)CC(C)CC3` (stereo unspecified), the Potency was inconclusive: 79.4 µM [inhibitor, single point].
Also: nearly all actives have a fitted effect of over 60% in size.
Potency is read from the fitted curve at half-maximal effect; tags tell the direction and shape of the fitted curve.
